# Laboratory results: PubChem BioAssay AID624171 (National Center for Advancing Translational Sciences (NCATS), 2012)
# Hit rate of the full screen: of about 410,000 compounds, about 1,200 (0.29%) were called active. The inconclusive results got no clear call from the source; some entries with a clear call stand among them for comparison. Calls follow the shape of the dose curve; as a rule, active = well fitted activation curve with a large enough effect; inconclusive = small, poorly fitted or top-dose-only effect; inactive = flat fitted curve, though single readings scatter. Potencies of inconclusive entries are doubtful fits and often do not repeat.
# Experiment: qHTS of Nrf2 Activators; also: nearly all actives have a fitted effect of over 65% in size
# Settings: AREc32 ARE-luciferase reporter (MCF7-derived line), luminescence, 24 h; series mostly up to 46.1 µM
# How it was run: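 Reporter line AREc32 (ARE-Fluc), seeded overnight in OPTI-MEM with 5% FBS; compound pin-transferred, 24 hr at 37 deg C, 5% CO2; luminescent read-out.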
# Potency is read from the fitted curve at half-maximal effect; tags tell the direction and shape of the fitted curve.
row,Compound,Potency
1,Cc1cccc(-n2nc3c(c2NC(=O)CCCl)CSC3)c1,"inconclusive: 25.1 µM [activator, single point]"
2,CSc1nc(C)cc(SC(C(C)=O)C(=O)Nc2ccccc2)n1 (stereo not drawn),"inconclusive: 22.4 µM [activator, single point]"
3,CCOc1ccccc1NC(=O)N1CCC(NC(=O)c2cccc(C)c2)CC1,inactive
4,O=C1c2ccccc2CC1Sc1nnc(-c2ccccn2)o1 (stereo not drawn),active: 12.6 µM
5,O=C(COc1ccccc1[N+](=O)[O-])N/N=C/C=C/c1ccco1,"inconclusive: 11.2 µM [activator, partial curve, poor fit]"
6,COc1ccc(CNC(=O)c2ccc3c(=O)n4c(nc3c2)CCCCC4)cc1OC,inactive
7,Cc1cccc(Cc2cnc(N3C(=N)SC(C)C3=O)s2)c1 (stereo not drawn),"inconclusive: 22.4 µM [activator, single point]"
8,O=C(CCCN1C(=O)S/C(=C\c2ccccc2)C1=O)NNC(=O)c1ccccc1O,inactive
9,Cc1nc(Nc2ccccc2F)c2oc3ccccc3c2n1,active: 3.16 µM
10,N/C(=N\OC(=O)c1cccc(F)c1)c1ccccc1,active: 11.2 µM
11,O=[N+]([O-])c1ncc(Br)cc1Nc1ccccc1,"inconclusive: 35.5 µM [activator, partial curve, poor fit]"
12,CCOC(=O)Cn1c(=O)n(C2CCCCC2)c2nc(-c3ccc(C(C)C)cc3)nc(C(N)=O)c21,inactive
13,O=C(C[C@H]1C/C=C\C[C@@H](Cc2ccc(F)cc2)C(=O)O[C@H](c2ccccc2)CNC1=O)NCCO,inactive
14,O=C(/C=C/c1ccccc1Br)c1ccc2c(c1)OCO2,"inconclusive: 11.2 µM [activator, partial curve, poor fit]"
15,COC(=O)[C@]1(C)N[C@H](CN(C)S(=O)(=O)c2ccccc2)[C@@H]2C(=O)N(C)C(=O)[C@@H]21,inactive
16,CCN1C(=O)Nc2cccc3cccc1c23,"inconclusive: 12.6 µM [activator, partial curve, poor fit]"
17,Cc1ccc(CNC(=O)c2cc(-c3ccccc3C)nn2CC2CC(c3cccnc3)=NO2)cc1 (stereo not drawn),inactive
18,O=C(COc1ccccc1O)Nc1ccccc1Cl,"inconclusive: 22.4 µM [activator, single point]"
19,Cc1nc2nc(-c3ccccc3)nn2c(C)c1Cl,"inconclusive: 2.24 µM [activator, full curve, poor fit]"
20,Oc1c(CN2CCc3ccccc3C2)cc(Cl)c2cccnc12,"inconclusive: 7.08 µM [activator, full curve, poor fit]"
21,Cc1ccc(P(=O)(CSC(=N)N)c2ccc(C)cc2)cc1,"inconclusive: 35.5 µM [activator, single point]"
22,O=C(CSc1ccc(-c2cccs2)nn1)c1cccs1,"inconclusive: 11.2 µM [activator, partial curve, poor fit]"
23,COC(=O)c1sccc1NC(=O)c1sccc1C,"inconclusive: 7.08 µM [activator, partial curve, poor fit]"
24,COCCCNC(=O)c1ccc(-n2c(-c3ccccc3)cc3c2CCC(C)C3)cc1 (stereo not drawn),"inconclusive: 11.2 µM [activator, partial curve]"
25,COc1ccc(C(=O)CSc2nnc(-c3cc(C)on3)o2)cc1,"inconclusive: 35.5 µM [activator, partial curve, poor fit]"

row,Compound,Potency
1,C=CCc1c(C)nc2nc(SCC(=O)Nc3ccc(C)c(C)c3)nn2c1C,"inconclusive: 35.5 µM [activator, single point]"
2,CSc1ncc(CN2CCCC(C(=O)Nc3ccc(-c4ccco4)cc3)C2)cn1 (stereo not drawn),"inconclusive: 15.8 µM [activator, single point]"
3,CCOC(=O)C1=CC[C@@H](c2ccccc2)N(S(=O)(=O)c2ccc(C)cc2)[C@H]1/C=C/c1ccccc1,inactive
4,CN(C)c1nc(=Nc2cccc(Cl)c2)ss1,"inconclusive: 2.24 µM [activator, partial curve, poor fit]"
5,N/C(=N\OC(=O)c1ccc(F)cc1)c1cccc([N+](=O)[O-])c1,"inconclusive: 11.2 µM [activator, partial curve, poor fit]"
6,Cc1ccc(-c2nc3c4ccccc4ccn3c2Cc2ccccc2)cc1,inactive
7,Cn1c(=O)n(CCc2ccccc2)c(=O)c2c1nc1n2CCN1Cc1ccco1,"inconclusive: 2.82 µM [activator, full curve, poor fit]"
8,COc1ccccc1NS(=O)(=O)c1cccc(C(=O)N/N=C/c2ccc([N+](=O)[O-])o2)c1,"inconclusive: 3.55 µM [activator, single point]"
9,COC(=O)c1sccc1NC(=O)COc1ccccc1Cl,active: 12.6 µM
10,CC1=Nc2ccccc2/C1=C\c1sc(Nc2ccc(C)cc2)nc1O,inactive
11,CCOC(=O)Cn1cc(C(=O)c2ccco2)c2ccccc21,"inconclusive: 10 µM [activator, partial curve]"
12,COc1ccccc1C(=O)Nc1nnc(-c2ccc(F)cc2)s1,inactive
13,CSCCC(NC(=O)c1cccc(S(=O)(=O)N2CCOCC2)c1)c1nc2ccccc2[nH]1 (stereo not drawn),inactive
14,CCCSc1nnc(Sc2nnnn2-c2ccccc2)s1,"inconclusive: 20 µM [activator, partial curve, poor fit]"
15,O=C(CSc1ncnc2c1cnn2-c1ccccc1Cl)N1CCN(C(=O)c2ccco2)CC1,inactive
16,COc1ccccc1OCC(=O)NNC(=S)NC(=O)c1ccco1,"inconclusive: 15.8 µM [activator, single point]"
17,COc1ccc(Cl)cc1NC(=O)CCS(=O)(=O)c1cccc2nonc12,"inconclusive: 7.94 µM [activator, partial curve]"
18,Cc1cccc(NC(=O)c2ccc3ccccc3n2)n1,"inconclusive: 12.6 µM [activator, partial curve, poor fit]"
19,O=C(Nc1onc2c1CCCC2)c1ccc(Cl)cc1,"inconclusive: 14.1 µM [activator, single point]"
20,CCCn1nc(NC(=O)c2ccccn2)c2cc3cc(C)ccc3nc21,inactive
21,COc1cc(/C=C2\SC(=S)N(CCCCC(=O)O)C2=O)ccc1OS(=O)(=O)c1ccc(C)cc1,"inconclusive: 22.4 µM [activator, single point]"
22,COC1(OC)C=CC(=O)C=C1NC(=O)c1ccccc1OC(C)=O,"inconclusive: 3.55 µM [activator, partial curve, poor fit]"
23,COc1cccc(C(=O)NCC(=O)OCc2cc(=O)n3nc(C)sc3n2)c1,inactive
24,CC1=CC(C)(C)n2c(O)c(N=N)c3c(C)c(C)cc1c32,inactive
25,Cc1ccc(S(=O)(=O)CCC(=O)Nc2nc(C(C)(C)C)cs2)cc1,"inconclusive: 17.8 µM [activator, single point]"

row,Compound,Potency
1,CC(C)(C)OC(=O)N1CCC(C(=O)Nc2ccc(C(=O)NC3CC3)cc2)CC1,inactive
2,Cc1cccc(C)c1NC(=S)Nc1ccc(Cl)c(Cl)c1,inactive
3,O=C(COC(=O)CC1CC2CCC1C2)Nc1ccc(Cl)c(S(=O)(=O)N2CCOCC2)c1 (stereo not drawn),"inconclusive: 31.6 µM [activator, single point]"
4,Cn1nc(C(F)(F)F)cc1C(=O)Nc1ccc(-c2ccno2)cc1,inactive
5,O=C(CSc1nnc2ccc(-c3ccccn3)nn12)Nc1ccccc1,inactive
6,CC1Cc2ccccc2N1C(=O)CSc1nnc(-c2ccccc2Cl)o1 (stereo not drawn),active: 1.78 µM
7,C/C(=N\Nc1ccc2nncn2n1)c1cccs1,"inconclusive: 12.6 µM [activator, partial curve]"
8,Cc1ccc2nc(N3C(=O)CNC3=S)sc2c1,"inconclusive: 35.5 µM [activator, single point]"
9,CC(C)(C)c1cc(OC(=O)C2CCCC2)ccc1O,"inconclusive: 15.8 µM [activator, single point]"
10,Cc1ccc(NC(=O)c2cc([N+](=O)[O-])ccc2Cl)c(O)c1,"inconclusive: 17.8 µM [activator, partial curve, poor fit]"
11,Cc1c(Cl)cccc1NC(=O)c1ncoc1-c1ccco1,"inconclusive: 2.51 µM [activator, full curve, poor fit]"
12,Cc1ccc(/C=C/C(=O)Nc2ccc([N+](=O)[O-])c(NC(=O)/C=C/c3ccc(C)o3)c2)o1,"inconclusive: 2 µM [activator, partial curve, poor fit]"
13,Oc1ccc(NCc2ccccc2OCc2ccccc2F)cc1,"inconclusive: 5.62 µM [activator, single point]"
14,Cn1c(N)c(C(=O)COC(=O)c2nc(Cl)ccc2Cl)c(=O)n(C)c1=O,active: 2.24 µM
15,Cc1ccc(N=C(NOCc2ccc(Cl)cc2Cl)c2nonc2N)c(C)c1,inactive
16,O=C(CSc1nc2ccccc2s1)N/N=C/c1ccco1,active: 5.01 µM
17,Cc1nnc2n1N=CC=C(c1ccccc1)S2,"inconclusive: 2.82 µM [activator, full curve, poor fit]"
18,Cc1cc(C)c(C#N)c(OCC(=O)c2ccccc2)n1,"inconclusive: 2.82 µM [activator, full curve]"
19,CCOC(=O)/C(C#N)=C\c1c(OCC)n(CC)c2ccccc12,inactive
20,Cc1ccc(-c2cc(-c3cccc(F)c3)n[nH]2)c(O)c1,"inconclusive: 2.82 µM [activator, full curve]"
21,Cc1cc(C)c(NC(=O)CCn2c(=O)c3cccn3c3cccnc32)c(C)c1,inactive
22,O=C(CNCc1ccccn1)Nc1ccc([N+](=O)[O-])cc1C(=O)Nc1ccccc1F,inactive
23,Cc1ccc(S(=O)(=O)N(C)c2ccc(OC(=O)CN3C(=O)NC4(CCCC4)C3=O)cc2)cc1C,inactive
